For 19 compounds, TGI and GI50 results are on record in PubChem BioAssay (NCI).

Values joined by “and” are separate entries in the source; they are usually repeats but may differ in a detail not shown here. Equal values may be shown once.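 Method: 48-hour compound exposure of cells in 96-well plates, five concentrations, linear interpolation of endpoints. The concentration for 50% growth inhibition is given as GI50. TGI: total growth inhibition.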 Bridge positions count the residues as written; N and C are the ends. Square brackets hold non-standard residues; d marks the D form. Peptide text beside a SMILES is read from it. I, II: the chains in the order shown. * marks the point of attachment. Heptadecanoyl = CCCCCCCCCCCCCCCCC(=O)*; Phg = N[CH](C(=O)O)c1ccccc1

The subject of this assay is NCI-H322M lung. Description: inhibition of tumour cell growth, NCI panel, 48 h.
Consider `CC1=NN(c2ccccc2)C(=O)C1C(=O)C(=O)Nc1ccc(C)cc1C` (centres undefined), for which the TGI was over 100 µM.
In the case of `COc1ccc2c(c1)CC[C@@H]1[C@@H]2CC[C@]2(C)c3c(cc(C(=O)c4ccccc4)c4sccc34)C[C@@H]12`, the GI50 was over 100 µM and the TGI was over 100 µM.
For the compound `Cc1ccc(C2CC(c3cccc(Nc4ccncc4)c3)=NN2c2ccc(Cl)cc2)cc1` (centres undefined), the GI50 was 1.54 µM and the TGI came out at 2.89 µM.
Consider `Cc1ccc(C(=O)Nc2ccc(CP(=O)(O)O)cc2)cc1NC(=O)Nc1cc(C(=O)Nc2ccc(CP(=O)(O)O)cc2)ccc1C`, for which the TGI was over 100 µM.
Same read-out and setting: the figure for `COc1ccc(OC)c(/C=C/c2cnnc3ccccc23)c1` is over 10 µM.
Regarding `c1ccc(-c2cc(-c3cc(-c4ccccc4)no3)on2)cc1`, the TGI was over 100 µM.
`CC(=O)/C=C/c1ccc(N(C)Cc2ccc(C(C)(C)C)cc2)cc1`: the GI50 was 191 µM and the TGI turned out to be 477 µM.
As to `COc1cc(C2c3cc4c(cc3OC(O)C2C)OCO4)cc(OC)c1O` (centres undefined), the TGI is over 100 µM.
Same read-out and setting: the figure for `Cc1c(C)c2ccc(O)cc2[nH]c1=O` is over 100 µM; for `FC(F)(F)c1ccccc1C=NC12CC3CC(CC(C3)C1)C2` it is over 100 µM; for `CCC(CCCCC1CC[C@H]2CC(=O)C[C@@H]12)OC` (some centres undefined) it is over 100 µM.
For the compound `COc1cc2c(/C=C3/C(=O)Nc4c3ccc3ccccc43)c(Cl)[nH]c2cc1C`, the GI50 was 5.98 µM and the TGI is over 50 µM.
Regarding `COC(=O)C12OCC34C(CC5C(C)=CC(=O)C(O)C5(C)C3C(O)C1O)OC(=O)C(OC(=O)CC(C)C)C24` (centres undefined), the GI50 was 0.15 µM and 0.0702 µM.
For `Cc1cc2c(=O)cc(-c3ccc(C(=O)O)cc3)oc2c(C(=O)O)c1C`, the TGI was over 100 µM.
The compound `CC(=O)OCC(OC(C)=O)C(OC(C)=O)C(OC(C)=O)C(/C=N\Nc1nc2ccccc2c(=O)[nH]1)OC(C)=O` (centres undefined) registered a TGI of over 100 µM.
The same measure, in the same setting: the figure for `CCCC[Si](CCCC)(CCCC)O[C@@H](/C=C/C(=O)OCC)[C@H](Cc1ccccc1)O[Si](CCCC)(CCCC)CCCC` is over 100 µM.
Same read-out and setting: the figure for `CCCCN1C(=O)C[C@H]2[C@@H]3CCc4cc(OCCN5CCCC5)ccc4[C@H]3CC[C@]2(C)C1=O` is 22.1 µM.
Same read-out and setting: the figure for `O=[N+]([O-])c1ccc(C2N3CCCCC3[C@@H]3c4[nH]c5ccccc5c4CCN23)cc1` (some centres undefined) is 67.6 µM.
Regarding `CCCCCCCCCCCCCCCCC(=O)N1CCCC1C(=O)NCC(=O)NC(C(=O)N1CCCC1C(=O)NC(CO)C(=O)NC(Cc1ccc(O)cc1)C(=O)NC(CCCCNC(=O)C1CCCN1C(=O)C(CCCCN)NC(=O)C(CCCCN)NC(=O)C(CCCCN)NC(=O)C(CCCNC(=N)N)NC(=O)C(CCCCN)NC(=O)C(N)C(C)C)C(=O)NC(CC(C)C)C(=O)NC(CCCNC(=N)N)C(=O)N1CCCC1C(=O)NCC(N)=O)c1ccccc1` (centres undefined) (I: Heptadecanoyl-PG[Phg]PSYKLRPG-NH2 / II: H-VKRKKKP; amide I:7-II:C; configuration not given here), the GI50 is 16.6 µM and the TGI is 56 µM.
